Measured values as given in paper PMC4336329 (PLoS ONE, 2015).
Hit rate of the full screen: of about 310,000 compounds, about 14,000 (4.5%) showed an effect of 50% or more. The effect is printed as a negative number. The list shows a part of the results.

molecular target: human ether-à-go-go-related gene (hERG) potassium channel (human, UniProt Q12809); experiment: primary screen, population patch clamp on CHO cells stably expressing hERG
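Note: peak tail current of the secondary pulse compared with the same well before compound.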

Chain of human ether-à-go-go-related gene (hERG) potassium channel (Q12809 whole entry, looked up): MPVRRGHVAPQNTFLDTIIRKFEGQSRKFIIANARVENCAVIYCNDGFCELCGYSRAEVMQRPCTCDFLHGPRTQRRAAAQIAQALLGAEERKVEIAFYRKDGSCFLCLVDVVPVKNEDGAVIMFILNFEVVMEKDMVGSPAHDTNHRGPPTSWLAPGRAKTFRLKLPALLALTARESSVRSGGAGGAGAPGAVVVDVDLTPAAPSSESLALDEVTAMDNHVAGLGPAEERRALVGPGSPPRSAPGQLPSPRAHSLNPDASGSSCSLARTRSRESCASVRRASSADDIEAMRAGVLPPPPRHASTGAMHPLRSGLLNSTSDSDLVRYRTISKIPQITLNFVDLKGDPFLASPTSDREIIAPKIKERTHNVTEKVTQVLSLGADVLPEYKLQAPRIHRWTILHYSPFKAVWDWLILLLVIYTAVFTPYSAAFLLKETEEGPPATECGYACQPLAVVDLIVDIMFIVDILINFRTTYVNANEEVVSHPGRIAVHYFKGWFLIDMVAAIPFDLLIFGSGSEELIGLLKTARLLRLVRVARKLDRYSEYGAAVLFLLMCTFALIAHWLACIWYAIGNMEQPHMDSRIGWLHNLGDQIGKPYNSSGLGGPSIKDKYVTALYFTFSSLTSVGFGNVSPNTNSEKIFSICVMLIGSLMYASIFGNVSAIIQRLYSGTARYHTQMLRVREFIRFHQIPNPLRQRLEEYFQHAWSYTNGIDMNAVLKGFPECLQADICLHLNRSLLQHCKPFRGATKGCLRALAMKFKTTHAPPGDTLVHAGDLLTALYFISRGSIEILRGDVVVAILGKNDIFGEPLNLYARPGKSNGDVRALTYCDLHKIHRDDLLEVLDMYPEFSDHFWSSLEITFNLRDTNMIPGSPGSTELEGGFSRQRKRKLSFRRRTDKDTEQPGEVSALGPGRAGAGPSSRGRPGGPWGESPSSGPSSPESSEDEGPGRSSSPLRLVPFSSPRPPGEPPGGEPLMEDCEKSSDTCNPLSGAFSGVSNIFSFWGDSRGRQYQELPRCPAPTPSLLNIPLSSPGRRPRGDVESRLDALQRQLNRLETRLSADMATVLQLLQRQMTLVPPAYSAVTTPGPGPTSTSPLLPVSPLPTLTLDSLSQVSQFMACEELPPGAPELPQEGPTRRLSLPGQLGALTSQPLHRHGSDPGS

Structure (SMILES) | hERG current change (%, negative = inhibition) at 10uM
COc1ccc(CCNC(=O)c2ccc3c(c2)SC2=NS(=O)(=O)CCN23)cc1 | -60.4%
O=C(CCn1c(=O)[nH]c2ccsc2c1=O)N1CCc2ccccc2C1 | 7.28%
Cc1ccc(S(=O)(=O)N2CCCCC2)cc1C(=O)N1CCCCCC1 | -12.7%
CCSc1nnc(-c2ccc(S(=O)(=O)N3CCOCC3)cc2)n1CC1CCCO1 (stereo not drawn) | 3.21%
CS(=O)(=O)c1ccc(Cl)c(C(=O)NCC2CCCCC2)c1 | -6.06%
O=C(N/N=C/C1CC=CCC1)c1cc2ccccc2cc1O (stereo not drawn) | -9.29%
O=C(COc1ccc(Br)cc1Cl)NC1CCN(Cc2ccccc2)CC1 | -67.3%
O=[N+]([O-])c1ccc(S(=O)(=O)NCC2CC3CCC2C3)cc1 (stereo not drawn) | -3.11%
CCOc1ccc(CCNC(=O)CS(=O)Cc2nc(-c3ccc(OC)cc3)oc2C)cc1OCC (stereo not drawn) | -14.7%
Cc1nc(NC(=O)c2cc(-n3cnnc3)ccc2Cl)ccc1Br | -26.8%
COc1cccc(/C=C/C(=O)NNC(=O)c2cc(C)oc2C)c1 | -25.6%
O=c1[nH]c2ccccc2nc1NCc1ccccc1 | 11.8%
Cc1c(C(=O)Nc2nc3ccccc3[nH]2)oc2c(Cl)cccc12 | 7.69%
COc1ccccc1/C=C/C=C1\Oc2c(ccc(O)c2CN(C)C)C1=O | -27.8%
Cc1[nH]n(-c2ccccc2)c(=O)c1C(C[N+](=O)[O-])c1ccccc1Cl (stereo not drawn) | 16.3%
O=C1CCc2cc(S(=O)(=O)Nc3ccccc3F)ccc2N1 | -2.66%
O=c1cc(-c2ccccc2Cl)oc2ccc([N+](=O)[O-])c(O)c12 | 9.93%
FC(F)(F)c1cc(N2CCNCC2)c2ccccc2n1 | 4.22%
COS(=O)(=O)[O-].Cc1ccc(S(=O)(=O)Cc2sc3ccccc3[n+]2C)cc1 | 8.33%
O=S(=O)(CCc1nc2ccccc2o1)c1ccc(Cl)c(Cl)c1 | 13.4%
CCC1(CC)NC(=O)N(CC(=O)OCn2nnc3ccccc3c2=O)C1=O | 15.7%
COC(=O)COc1cc(=O)oc2ccc(NS(=O)(=O)c3ccccc3)cc12 | 4.7%
O=C(NC(Cc1ccccc1)C(=O)O)c1ccco1 (stereo not drawn) | 21.9%

Structure (SMILES) | hERG current change (%, negative = inhibition) at 10uM
CCCCCCCC(=O)N/N=C(\C)c1ccc(O)cc1O | -1.26%
Cc1cc(-c2ccccc2)nc(N/N=C/c2ccc(O)cc2O)n1 | 2.45%
O=C(Nc1ccc(F)cc1)c1nsc(Cl)c1Cl | 2.24%
CCN(Cc1ccccc1)C(=O)C1CCN(C(=O)Nc2ccccc2)CC1 | 14.8%
COc1ccc(OC)c(CNC(=O)C2CCC(=O)N2C(C)C)c1 (stereo not drawn) | 2.28%
Cc1ccc(CCNC(=O)C2CC(=O)N(CCc3ccccc3)C2)cc1 (stereo not drawn) | -14.1%
O=C(Nc1ccccc1)N1CCCC1c1cccs1 (stereo not drawn) | 18%
CCCCn1nc(C(=O)N2CCN(S(=O)(=O)c3ccccc3)CC2)c2ccccc2c1=O | -40.7%
Cc1ccc(-n2c(C)cc(/C=N/NC(=O)Cn3c4ccccc4c(=O)c4ccccc43)c2C)cc1 | 12.4%
COc1ccc(C(=O)Oc2c(OC)cc(C(=S)N3CCOCC3)cc2OC)cc1 | -0.141%
COC(=O)c1cncn1C(C)c1ccccc1.Cl (stereo not drawn) | 8.9%
Cc1csc2ncnc(N3CCN(C(=O)Nc4ccc(OC(F)(F)F)cc4)CC3)c12 | -68%
O=c1c(CN2CCN(Cc3ccccc3)CC2)coc2ccc(Cl)cc12 | -42.9%
COc1ccccc1CNC(=O)COC(=O)CSc1ccc(F)cc1 | 12.6%
Cc1ccc(C(=O)N2CC=C(c3ccccc3)CC2)s1 | 5.93%
Cn1c(=O)[nH]c(=O)c2c1nc(SCCO)n2CC(O)COc1ccccc1 (stereo not drawn) | 16.2%
CSCc1nnc(NC(=O)c2ccc(S(=O)(=O)N(C)C)cc2)o1 | 20.7%
Cc1cc2c(cc1S(=O)(=O)N(C)C1CCCCC1)OCC(=O)N2 | 7.2%
COc1ccc(CNC(=O)CCCC(=O)Nc2cccc(Br)c2)cc1 | -9.81%
CCCCc1cc(=O)oc2cc(OCC(=O)N3C[C@H]4C[C@@H](C3)c3cccc(=O)n3C4)ccc12 | -26.9%
CCOC(=O)CNC(=O)Cc1ccc(Cl)cc1 | 12.1%
COc1cc(CN2CCC(C)CC2)ccc1OCc1ccccc1.O=C(O)C(=O)O | -52.9%
CC(C)(C)c1ccc(OCC(=O)O)cc1 | 17.9%

Structure (SMILES) | hERG current change (%, negative = inhibition) at 10uM
O=Cc1cn(CC(=O)NCC2CCCO2)c2ccccc12 (stereo not drawn) | 5.1%
N#CCN1CCN(c2ccc(C(F)(F)F)cc2)CC1 | -6.52%
CCN(CC(=O)Nc1ccccc1C(F)(F)F)C(=O)c1ccc(N2CCCC2=O)cc1 | -1.02%
C=CCOc1ccc(CNn2cn[nH]c2=S)cc1OCC | 12.7%
Cc1c(NC(=O)c2ncn[nH]2)cccc1-c1nc2ccccc2s1 | 23.1%
COc1ccccc1/C=C/C=N/NC(=O)c1ccco1 | -0.335%
CCOC(=O)C/C(=N\Nc1ncnc2ccccc12)c1ccccc1 | -15%
CCCOC(=O)C1=C(C)NC(=O)NC1c1cc2c(cc1Br)OCO2 (stereo not drawn) | 13.9%
O=C(Nc1cnc2ccccn2c1=O)c1ccc(Cl)cc1 | -23%
COc1ccccc1N1CCN(C(=O)c2cc3c(s2)CCCCC3)CC1 | -4.94%
CS(=O)(=O)Cc1cc(N2CCCC2)nc(-c2ccccc2)n1 | 10.5%
O=C1OC(N2CCN(C/C=C/c3ccccc3)CC2)c2ccccc21 (stereo not drawn) | 9.57%
Cc1cc2cc(C#N)c(SCC(=O)Nc3nonc3C)nc2cc1C | -0.0959%
COc1ccc(C(=O)NC(=O)Nc2ncccc2C)cc1 | -10.8%
CCOC(=O)c1ccc(N=C2SC(C(=O)NCCc3ccccc3)CC(=O)N2C)cc1 (stereo not drawn) | 33.1%
COc1cc2cc(CN(CCCO)S(=O)(=O)c3ccccc3Cl)c(=O)[nH]c2cc1OC | -0.98%
CCOCCn1c(CN2CCN(CCO)CC2)nc2c1c(=O)n(C)c(=O)n2C | 14.3%
COC(=O)c1ccc(CSc2nnc(SCc3ccc(C(=O)OC)o3)s2)o1 | -10.1%
O=C1c2ccccc2NC(c2ccncc2)N1c1ccccn1 (stereo not drawn) | -7.92%
CCc1[nH]nc(C(=O)N2CCCC(CNS(=O)(=O)c3cccs3)C2)c1C (stereo not drawn) | 13.7%
CN(CC(=O)Nc1ccc(F)c(F)c1F)C(=O)c1ccc(-n2cncn2)c([N+](=O)[O-])c1 | -40.6%
NCCOc1cnn(-c2ccccc2Cl)c(=O)c1Cl | 7.19%
O=C(Nc1ccccc1OC(F)F)c1ccc(-n2cncn2)c([N+](=O)[O-])c1 | -4.72%

Structure (SMILES) | hERG current change (%, negative = inhibition) at 10uM
COc1cccc(OCCOc2ccc(/C=C3/SC(=S)NC3=O)cc2)c1 | 23%
COC(=O)C1CCN(S(=O)(=O)c2ccc(OC)cc2)CC1 | -2.48%
Oc1ccccc1/C=N/Nc1cc(N2CCCC2)nc(N2CCCC2)n1 | -4.01%
COC(=O)N/N=C/c1ccccc1Cl | 19.4%
CCCCN1C(=O)C(=O)N(CC(=O)Nc2cccc(C(C)=O)c2)C1=O | 8.76%
N#Cc1c(-c2ccc(F)cc2)cc(-c2cccnc2)nc1N | 0.468%
Cc1cc(NC(=O)c2coc(=O)c(Br)c2)ccc1C(C)C | 10.2%
O=c1[nH]c(C2CCN(S(=O)(=O)c3ccc(C(F)(F)F)cc3)CC2)nc2c1nnn2Cc1ccccc1 | 8.98%
Cc1ccccc1CN1CCN(C(=O)c2ccc(S(=O)(=O)NCc3ccco3)cc2)CC1 | -25%
Cc1ccc(/C=N/Nc2ncnc3nc[nH]c23)cc1 | -18.6%
CC(C(=O)NC1CCCC1)N1C(=O)c2cccc3cccc1c23 (stereo not drawn) | 11.3%
CCOC(=O)c1c(C)[nH]c(C)c1S(=O)(=O)N(C)CC(=O)Nc1cccc(C)c1 | -3.84%
COc1ccc(-c2nn(CCC(=O)O)cc2/C=C2\SC(N)=NC2=O)cc1 | -3.79%
CC(C)N(Cc1ccccc1)C(=S)Nc1ccccc1F | 8.65%
CCSc1ncc(Cl)c(C(=O)Nc2ccccc2Cl)n1 | 13.5%
O=C(Nc1ccc(C(=O)N2CCCCC2)cc1)c1cccs1 | 10.6%
COc1ccc(NC(=O)C(C)N2C(=O)c3ccccc3C2=O)c(OC)c1 (stereo not drawn) | 4.58%
O=C(Nc1ccnn1C1CCN(Cc2c[nH]c3ccccc23)CC1)c1ccccc1 | -44.7%
Cc1cccc(C(=O)O/N=C(\N)c2ccc(Cl)cc2)c1 | -15.9%
COc1ccc(NC(=S)NC(NC(=O)/C=C/c2ccccc2)C(Cl)(Cl)Cl)cc1 (stereo not drawn) | 7.49%
O=C(C1=NN(c2ccccc2)C2C(=O)N(c3cccc(Cl)c3)C(=O)C12)c1ccccc1 (stereo not drawn) | 1.55%
